This is an account of results in publication PMC4336329 (PLoS ONE, 2015).

The structures appear in SMILES notation. Screen size: about 310,000 compounds; about 2,200 (0.71%) showed an effect of 50% or more. The effect is printed as a negative number. This is one part of the list.

The target in the experiment is human ether-à-go-go-related gene (hERG) potassium channel (human, UniProt Q12809). The experiment is described as follows: primary screen, population patch clamp on CHO cells stably expressing hERG.
human ether-à-go-go-related gene (hERG) potassium channel, sequence (Q12809 whole entry, looked up): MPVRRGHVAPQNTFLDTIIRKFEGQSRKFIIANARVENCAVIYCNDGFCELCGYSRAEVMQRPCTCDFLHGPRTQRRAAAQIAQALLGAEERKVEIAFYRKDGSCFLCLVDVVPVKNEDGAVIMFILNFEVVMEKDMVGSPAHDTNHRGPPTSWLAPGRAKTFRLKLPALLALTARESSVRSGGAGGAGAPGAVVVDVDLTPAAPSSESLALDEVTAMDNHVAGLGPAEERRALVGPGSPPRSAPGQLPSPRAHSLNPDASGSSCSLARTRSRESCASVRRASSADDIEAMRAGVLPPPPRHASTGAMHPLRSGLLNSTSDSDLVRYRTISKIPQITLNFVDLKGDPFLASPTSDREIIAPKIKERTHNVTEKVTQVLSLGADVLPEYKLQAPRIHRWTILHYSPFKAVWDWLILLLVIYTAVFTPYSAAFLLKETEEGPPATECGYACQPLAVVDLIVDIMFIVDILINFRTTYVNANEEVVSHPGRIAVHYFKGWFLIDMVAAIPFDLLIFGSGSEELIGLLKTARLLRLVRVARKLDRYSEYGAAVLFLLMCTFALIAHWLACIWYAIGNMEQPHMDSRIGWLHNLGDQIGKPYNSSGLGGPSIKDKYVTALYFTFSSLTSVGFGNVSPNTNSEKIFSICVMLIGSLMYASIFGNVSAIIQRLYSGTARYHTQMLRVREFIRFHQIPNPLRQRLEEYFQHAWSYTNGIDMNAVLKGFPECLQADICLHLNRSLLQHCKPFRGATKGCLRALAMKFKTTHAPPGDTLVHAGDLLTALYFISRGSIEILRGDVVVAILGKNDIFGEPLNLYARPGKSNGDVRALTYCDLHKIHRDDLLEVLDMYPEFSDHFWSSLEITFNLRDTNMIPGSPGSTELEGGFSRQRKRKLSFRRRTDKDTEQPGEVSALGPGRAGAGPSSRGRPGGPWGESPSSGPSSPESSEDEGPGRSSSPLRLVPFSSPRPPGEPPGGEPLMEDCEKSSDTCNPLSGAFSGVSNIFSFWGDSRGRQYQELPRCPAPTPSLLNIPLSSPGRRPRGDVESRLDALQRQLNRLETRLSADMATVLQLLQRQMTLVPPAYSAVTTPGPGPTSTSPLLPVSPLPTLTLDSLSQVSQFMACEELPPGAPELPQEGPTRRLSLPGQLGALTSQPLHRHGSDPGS
On to `CCNC(=O)CC1C(=O)N(c2ccc(F)cc2)C(=O)N1CCc1sccc1C` (stereo not shown), for which the “hERG current change (%, negative = inhibition) at 1uM” value is recorded as 0.0627%. As to `COc1cccc(C(=O)COc2ccc3c(C)c(Cc4ccccc4)c(=O)oc3c2)c1`, the “hERG current change (%, negative = inhibition) at 1uM” value was 14.1%. With `Cc1cc(C)c2c(N)c(C(=O)c3ccc(Cl)cc3Cl)sc2n1`, the “hERG current change (%, negative = inhibition) at 1uM” value is on record as 6.94%.

Regarding `CC(=O)C1=C(O)C(=O)N(CCNCCO)C1c1ccccc1` (stereo not shown), the “hERG current change (%, negative = inhibition) at 1uM” value is 1.25%. The value for `CCOc1ccc(C(=O)NC(=S)Nc2ccccc2N2CCOCC2)cc1Br` was 6.45%; that for `CCN(CC)C(=O)CCNS(=O)(=O)c1ccc(C)cc1` was 14%. The value for `COc1ccc2c(c1)CC/C2=N\NC(=O)c1ccccc1` was 5.32%; that for `CCN1c2ccccc2NC2N=C(OC)C(c3ccccc3)C21` (stereo not shown) was 5.05%. As for `CCOCCCNC(=O)CN1C(=O)COc2ccc(S(=O)(=O)N3CCCC3)cc21`, the “hERG current change (%, negative = inhibition) at 1uM” value came out at 16%. The value for `O=C1c2oc3ccc(Cl)cc3c(=O)c2C(c2ccccn2)N1CCCN1CCOCC1` (stereo not shown) was 8.95%; that for `O=C(Nc1ccccc1)c1ncoc1-c1ccc(Cl)cc1` was 13.7%.

Regarding `CCOC(=O)c1sc(NC(=O)CSc2n[nH]c(CC(C)C)n2)nc1C`, the “hERG current change (%, negative = inhibition) at 1uM” value is given as -4.44%. The value for `Cc1cccc(CCNS(=O)(=O)c2ccc3c(c2)NC(=O)CO3)c1` was 10.7%; that for `COc1ccccc1CNC(=O)CCS(=O)(=O)c1cccs1` was 21.2%. `CC(C)OC(=O)CSc1nnc(-c2ccc(C(C)(C)C)cc2)n1N`: the “hERG current change (%, negative = inhibition) at 1uM” value was -1.9%. On to `Cc1ccc(NC(=O)Nc2cnccn2)c(C)c1`, for which the “hERG current change (%, negative = inhibition) at 1uM” value was found to be 9.35%.

`COc1cc(OC)c2c(c1)S(=O)(=O)C(c1ccccc1)=C2N`: the “hERG current change (%, negative = inhibition) at 1uM” value was 16.5%. The value for `O=C(NC(=S)Nc1cc([N+](=O)[O-])ccc1O)c1cccnc1` was 13%. The value for `Cc1ccc(C)c(N(CC(=O)N2CCCC2)S(C)(=O)=O)c1` was 17.3%. For the compound `Cc1nc(-c2nc(C(=O)NNS(C)(=O)=O)cs2)cs1`, the “hERG current change (%, negative = inhibition) at 1uM” value is 7.5%. The value for `Cn1nc(C(=O)N2CCc3ccccc32)c2ccccc2c1=O` was 18.3%; that for `CC(=O)NCC(=O)N(c1ccccc1)C1(C(=O)NC2CCCCC2)CCCCC1` was 7.2%. The value for `CCc1cccc2sc(NC(=O)c3ccc(N4C(=O)CCC4=O)cc3)nc12` was 20.5%. The value for `CCOC(=O)[C@@H]1[C@H]2COc3cc(OC)ccc3[C@@H]2N2C(=O)N(c3ccc(Br)cc3)C(=O)[C@@]12C` was 5.83%. Consider `Cc1cc(NC(=O)c2ccccc2C)no1`, for which the “hERG current change (%, negative = inhibition) at 1uM” value was found to be 7.51%. With `c1ccc2oc(Cc3ccc(Cc4nc5ccccc5o4)cc3)nc2c1`, the “hERG current change (%, negative = inhibition) at 1uM” value is listed as 8.95%. Take `O=C(COCc1cc(-c2ccc3c(c2)OCO3)on1)Nc1cccnc1`: the “hERG current change (%, negative = inhibition) at 1uM” value was 12.1%. The value for `C=CCNC(=S)N1CCN(c2cc3c(cc2F)c(=O)c(C(=O)O)cn3CC)CC1` was 9.41%. The value for `O=C(O)/C=C/c1cccc(NC(=O)c2ccc(Cl)cc2)c1` was 17.1%; that for `COc1cc(CNC(=O)c2ccc3oc(C(C)C)nc3c2)cc(OC)c1` was -1.26%; that for `COc1ccc2nc(N(CCN(C)C)C(=O)c3ccc4c(c3)OCCO4)sc2c1.Cl` was 0.359%. The value for `Cc1ccc(NC(=O)CCc2nnc3ccc(N4CCC(C)CC4)nn23)nc1` was 5.56%; that for `COC(=O)C1=C(C)N(c2cccc(C)c2)C(=O)/C1=C\c1cccs1` was 12.2%; that for `Cc1c2cnn(CC(=O)NCc3ccccn3)c(=O)c2c(C)n1Cc1ccc(Cl)cc1` was 12%. With `COc1cccc(N2CC(C)Cn3c2nc2c3c(=O)n(CCN3CCOCC3)c(=O)n2C)c1` (stereo not shown), the “hERG current change (%, negative = inhibition) at 1uM” value came out at 16.7%. The value for `Cc1ccccc1NC(=O)CN(C)S(=O)(=O)c1ccc2c(c1)n(C)c(=O)c(=O)n2C` was 12.4%; that for `O=C(COc1ccccc1Cl)NCCNC(=O)c1ccncc1` was 22.8%; that for `CN(C)CCCCOc1cccc(Br)c1.O=C(O)C(=O)O` was 6.64%. For `CN1CC(C(=O)c2ccc(Cl)cc2)C(c2ccc(Cl)cc2Cl)C1` (stereo not shown), the “hERG current change (%, negative = inhibition) at 1uM” value came out at 7.54%. The value for `O=C(NC(=S)NCC1CCCO1)c1ccc(Cl)cc1Cl` (stereo not shown) was 1.34%. The value for `Fc1ccc(N2CCN(Cc3cn[nH]c3-c3ccccc3)CC2)cc1` was -27%; that for `O=C1NC(=O)C2(CCCCCCCCCCC2)N1` was 9.52%.

Regarding `Nc1cc([N+](=O)[O-])cc2oc(-c3ccccc3)cc12`, the “hERG current change (%, negative = inhibition) at 1uM” value amounted to 13%. The value for `Fc1cccc(Nc2cc(-n3cccn3)ncn2)c1` was 7.87%; that for `CC(C)(C)NC(=O)NC(=O)CSc1nnc(COc2ccccc2Cl)o1` was 7.67%. In the case of `O=C(Cc1ccccc1[N+](=O)[O-])NCCCN1CCOCC1`, the “hERG current change (%, negative = inhibition) at 1uM” value amounted to 4.71%. The value for `Cc1ccc(S(=O)(=O)NC(=O)Nc2nccs2)cc1` was 5.12%; that for `CCOC(=O)c1[nH]ncc1CN1CCCC(C(=O)c2cc(Cl)ccc2OC)C1` (stereo not shown) was -29.9%. For the compound `COc1cccc(-c2nnn(CCC(=O)O)n2)c1`, the “hERG current change (%, negative = inhibition) at 1uM” value turned out to be 5.64%. On to `CCOC(=O)C1(CCCc2ccccc2)CCN(C(=O)CCc2cnn(C)c2)CC1`, for which the “hERG current change (%, negative = inhibition) at 1uM” value was -13.2%. The value for `O=C(NCC(c1ccco1)N1CCN(c2ccccc2)CC1)OCc1ccccc1` (stereo not shown) was 4.56%; that for `COC(=O)Cc1ccc(NC(=S)NCCO)cc1` was 7.83%.

With `CN(Cc1nc(CC2CC2)no1)CC12CC3CC(CC(C3)C1)C2`, the “hERG current change (%, negative = inhibition) at 1uM” value turned out to be 10.4%. Regarding `COC(=O)c1ccccc1OCCN1CCCCCC1.O=C(O)C(=O)O`, the “hERG current change (%, negative = inhibition) at 1uM” value is listed as -4.59%. `O=C(Nc1ccccc1Br)c1cc(=O)c2ccccc2o1`: the “hERG current change (%, negative = inhibition) at 1uM” value was found to be 11.5%. The value for `NC(=O)COc1cccc(/C=N/NC(=O)c2ccc(-n3cccc3)cc2)c1` was 11.2%; that for `CCOc1ccc(NC(=O)C2CCCN2C(=O)Oc2ccccc2)cc1` (stereo not shown) was 8.86%. The value for `CCc1c(C(=O)OCc2ccccc2)[nH]c(C)c1C` was 5.66%; that for `Cc1nnc(SCC(=O)c2ccc(S(=O)(=O)N3CCOCC3)cc2)n1-c1ccccc1` was -4.32%; that for `O=c1cc(-c2ccco2)nc(-c2cccs2)o1` was 15.8%. Regarding `CCN(CC)CC#CCOC(c1ccccc1)c1ccccc1.Cl`, the “hERG current change (%, negative = inhibition) at 1uM” value is listed as 9.79%. The value for `CCCCn1c(=O)[nH]c(=O)c2c1nc(-c1ccsc1)n2Cc1ccccc1` was 1.49%; that for `CCOc1ccc(/C(O)=C2/C(=O)C(=O)N(c3nc(C)c(C)s3)C2c2ccco2)cc1` (stereo not shown) was 2.89%. With `Nc1ncc2c(n1)CCN(c1ccc([N+](=O)[O-])cc1)C2`, the “hERG current change (%, negative = inhibition) at 1uM” value is -4.4%. The value for `CC(=O)c1ccc(NC(=O)COC(=O)CCN2C(=O)c3cccc([N+](=O)[O-])c3C2=O)cc1` was 16%; that for `CCOC(=O)Cc1csc(N/N=C/c2ccc(Cl)cc2)n1` was 17.8%; that for `COc1cc(OC)c(OC)cc1/C=C/c1cc(C(F)(F)F)[nH]c(=O)n1` was 19%. The value for `COc1ccc(N2CC(NC(=O)c3cccc4ccccc34)CC2=O)cc1OC` (stereo not shown) was 16.4%; that for `Cc1cc(Br)cc2c1N(C)C(=O)C2(c1ccc(O)cc1)c1ccc(O)cc1` was 12%. The value for `O=C(COC(=O)c1ccc(Cl)c(S(=O)(=O)N2CCc3ccccc3C2)c1)Nc1ncc(Cl)cc1Cl` was 5.29%; that for `O=C(Nc1cccc(F)c1)N1CC=C(c2ccc(Cl)cc2)CC1` was 14.4%; that for `CCN(c1cccc(C)c1)S(=O)(=O)c1cn(CC(=O)OC)c2ccc([N+](=O)[O-])cc12` was 13.4%.

Regarding `CCc1nnc(N2C(=O)c3ccccc3C2(O)c2ccccc2)s1` (stereo not shown), the “hERG current change (%, negative = inhibition) at 1uM” value amounted to 3.79%. The value for `NC(=O)c1c(NC(=O)CN2CCN(S(=O)(=O)c3ccccc3)CC2)sc2c1CCC2` was 8.55%; that for `COc1cc(NC(=S)N2CCN(C)CC2)c(OC)cc1Cl` was 1.79%; that for `Cc1nc2c3cc(F)ccc3n(Cc3ccc(F)cc3)c2s1` was 12.4%. Consider `Cc1cc2cc(CN(Cc3nnnn3C3CCCCC3)CC3CCCO3)c(=O)[nH]c2cc1C` (stereo not shown), for which the “hERG current change (%, negative = inhibition) at 1uM” value turned out to be 9.82%. As to `CN1CCN(C(=O)c2cc3nc(-c4ccco4)cc(C(F)(F)F)n3n2)CC1`, the “hERG current change (%, negative = inhibition) at 1uM” value was determined as 0.742%. For `CC[n+]1cc(-c2ccccc2)nc(N2CCOCC2)n1.[I-]`, the “hERG current change (%, negative = inhibition) at 1uM” value is recorded as 12.5%.

As for `CC1(C2CC2)NC(=O)N(CC(=O)NCc2ccc(Cl)cc2Cl)C1=O` (stereo not shown), the “hERG current change (%, negative = inhibition) at 1uM” value was found to be 2.44%. Turning to `COCCCn1c(=N)c(C(=O)NCC2CCCO2)cc2c(=O)n3ccccc3nc21` (stereo not shown), the “hERG current change (%, negative = inhibition) at 1uM” value is on record as -44.3%. The value for `Cc1ccc2c(CC(=O)NCC3(N4CCOCC4)CCCCC3)coc2c1C` was -5.15%; that for `CC(O)[C@H]1CNC(=O)C(=O)N1CCc1cc(C(F)(F)F)cc(C(F)(F)F)c1` (stereo partly shown) was 15.9%.

Consider `COC(=O)COc1ccc2c(=O)c(Oc3ccccc3Br)coc2c1`, for which the “hERG current change (%, negative = inhibition) at 1uM” value came to 4.12%. For the compound `Cl.O=C(NCCN1CCOCC1)c1ccc(Cl)c(S(=O)(=O)N2CCCCCC2)c1`, the “hERG current change (%, negative = inhibition) at 1uM” value is -10.3%. For `Cc1c(NS(=O)(=O)c2cccc(C(=O)OCC(=O)N(C)C3CCCCC3)c2)c(=O)n(-c2ccccc2)n1C`, the “hERG current change (%, negative = inhibition) at 1uM” value was determined as 11.7%. The value for `O=C(CSc1ccc2c(c1)OCCO2)Nc1ccc(N2CCOCC2)cc1` was 11.6%; that for `C=CCN(CC=C)C(=S)NC(=O)Cc1cccc2ccccc12` was 5.08%.
